# From the supplement of paper PMC8512760
# The other results are listed elsewhere or left out. Most values come without repeats; read them as rough.
# What was measured:
# Assay in all cases: cell viability relative to vehicle (% of vehicle); basal-like triple-negative breast cancer lines; higher = less cytotoxic
# Conditions in all cases: 10 µM; 72 h
# HCC-1143 = system: HCC-1143
# HCC-1187 = system: HCC-1187
# MDA-468 = system: MDA-468
# SUM-149 = system: SUM-149
# 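Further: stably firefly luciferase-GFP labeled cells in 96-well plates, viability read as luciferase photon flux after d-luciferin addition, treated wells normalized to vehicle wells, single-dose high-throughput screen.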
smiles,measurement,setting,value
CCCCCCCCCCCCCCCC[n+]1ccccc1.[Cl-] [Cetylpyridinium Chloride],cell viability,HCC-1143,16.8
same,cell viability,HCC-1187,21.6
same,cell viability,MDA-468,27.1
same,cell viability,SUM-149,19.9
Cc1cccc(C(C)c2cnc[nH]2)c1C.Cl (stereo not drawn) [Medetomidine HCl],cell viability,HCC-1143,84.8
same,cell viability,HCC-1187,103
same,cell viability,MDA-468,102
same,cell viability,SUM-149,96.9
CCC(C(N)=O)N1CCCC1=O (stereo not drawn) [Levetiracetam],cell viability,HCC-1143,114
same,cell viability,HCC-1187,111
same,cell viability,MDA-468,93.4
same,cell viability,SUM-149,81.1
O.O=P1(N(CCCl)CCCl)NCCCO1 (stereo not drawn) [Cyclophosphamide monohydrate],cell viability,HCC-1143,101
same,cell viability,HCC-1187,96.1
same,cell viability,MDA-468,97.5
same,cell viability,SUM-149,118
CNC1CC(N)C(O)C(OC2OC(CO)C(O)C3OC4(OC(C(N)CO)C(O)C(O)C4O)OC23)C1O (stereo not drawn) [Hygromycin B],cell viability,HCC-1143,60.4
same,cell viability,HCC-1187,95.9
same,cell viability,MDA-468,88.6
same,cell viability,SUM-149,152
NC(Cc1ccc(N(CCCl)CCCl)cc1)C(=O)O (stereo not drawn) [Melphalan],cell viability,HCC-1143,80.8
same,cell viability,HCC-1187,91
same,cell viability,MDA-468,93.3
same,cell viability,SUM-149,107
COc1cc2c(c(OC)c1OC)-c1ccc(OC)c(=O)cc1C(NC(C)=O)CC2 (stereo not drawn) [Colchicine],cell viability,HCC-1143,58.8
same,cell viability,HCC-1187,42.9
same,cell viability,MDA-468,64
same,cell viability,SUM-149,112
CC(=O)O[C@@]12CO[C@@H]1C[C@@H](O)[C@@]1(C)C(=O)[C@@H](O)C3=C(C)[C@@H](O)C[C@@](O)([C@@H](OC(=O)c4ccccc4)[C@H]21)C3(C)C [10-DAB (10-Deacetylbaccatin)],cell viability,HCC-1143,61.1
same,cell viability,HCC-1187,16
same,cell viability,MDA-468,61.4
same,cell viability,SUM-149,87.9
CN(C)C(=O)Oc1ccc[n+](C)c1.[Br-] [Pyridostigmine Bromide],cell viability,HCC-1143,78.3
same,cell viability,HCC-1187,84.9
same,cell viability,MDA-468,91.9
same,cell viability,SUM-149,101
CCNCC.O=C(O)Cc1ccccc1Nc1c(Cl)cccc1Cl [Diclofenac Diethylamine],cell viability,HCC-1143,71.5
same,cell viability,HCC-1187,74.3
same,cell viability,MDA-468,105
same,cell viability,SUM-149,98.6
CCCC1CC(=O)N(C(CC)C(N)=O)C1 (stereo not drawn) [Brivaracetam],cell viability,HCC-1143,85.6
same,cell viability,HCC-1187,92.6
same,cell viability,MDA-468,106
same,cell viability,SUM-149,101
c1ccc2c(c1)sc1ccccc12 [Dibenzothiophene],cell viability,HCC-1143,73.1
same,cell viability,HCC-1187,94.7
same,cell viability,MDA-468,110
same,cell viability,SUM-149,81.6
NCCC(O)(P(=O)([O-])O)P(=O)([O-])O.[Na+].[Na+] [Pamidronate Disodium],cell viability,HCC-1143,76.2
same,cell viability,HCC-1187,84.4
same,cell viability,MDA-468,75.3
same,cell viability,SUM-149,78.4
CC(C)NCC(O)c1ccccc1Cl.Cl (stereo not drawn) [Clorprenaline HCL],cell viability,HCC-1143,71
same,cell viability,HCC-1187,99.7
same,cell viability,MDA-468,143
same,cell viability,SUM-149,94.6
COc1ccc(C(=O)N2CCCC2=O)cc1 [Aniracetam],cell viability,HCC-1143,80.5
same,cell viability,HCC-1187,80.4
same,cell viability,MDA-468,116
same,cell viability,SUM-149,116
CNCC(=O)c1ccc(O)c(O)c1.Cl [Adrenalone HCl],cell viability,HCC-1143,100
same,cell viability,HCC-1187,112
same,cell viability,MDA-468,166
same,cell viability,SUM-149,99.7
CC(O)(CS(=O)(=O)c1ccc(F)cc1)C(=O)Nc1ccc(C#N)c(C(F)(F)F)c1 (stereo not drawn) [Bicalutamide],cell viability,HCC-1143,78.4
same,cell viability,HCC-1187,116
same,cell viability,MDA-468,90.5
same,cell viability,SUM-149,94.2
CC1CNCCc2ccc(Cl)cc21.Cl (stereo not drawn) [Lorcaserin HCl],cell viability,HCC-1143,73.9
same,cell viability,HCC-1187,92.8
same,cell viability,MDA-468,121
same,cell viability,SUM-149,99.7
C=C1CC2C(CCC3(C)C(=O)CCC23)C2(C)C=CC(=O)C=C12 (stereo not drawn) [Exemestane],cell viability,HCC-1143,115
same,cell viability,HCC-1187,108
same,cell viability,MDA-468,126
same,cell viability,SUM-149,99.5
CC(=O)Nc1cc([As](=O)(O)O)ccc1O [Arsonic acid],cell viability,HCC-1143,78.2
same,cell viability,HCC-1187,106
same,cell viability,MDA-468,98.7
same,cell viability,SUM-149,105
Cn1cc(C2=C(c3cn(C4CCN(Cc5ccccn5)CC4)c4ccccc34)C(=O)NC2=O)c2ccccc21,cell viability,HCC-1143,57.2
same,cell viability,HCC-1187,33.6
same,cell viability,MDA-468,49.3
same,cell viability,SUM-149,76.4
COc1cc2c(cc1OC)C13CCN4CC5=CCOC6CC(=O)N2C1C6C5CC43 (stereo not drawn) [Brucine],cell viability,HCC-1143,83.6
same,cell viability,HCC-1187,102
same,cell viability,MDA-468,148
same,cell viability,SUM-149,141
CC1C=CC=CCCC=CC=CC=CC=CC(OC2OC(C)C(O)C(N)C2O)CC2OC(O)(CC(O)C(O)CCC(O)CC(O)CC(O)CC(=O)OC(C)C(C)C1O)CC(O)C2C(=O)O (stereo not drawn) [Nystatin (Fungicidin)],cell viability,HCC-1143,77.5
same,cell viability,HCC-1187,116
same,cell viability,MDA-468,127
same,cell viability,SUM-149,103
NC(=O)CN1CC(O)CC1=O (stereo not drawn) [Oxiracetam],cell viability,HCC-1143,120
same,cell viability,HCC-1187,106
same,cell viability,MDA-468,104
same,cell viability,SUM-149,109
O=C(O)CCCc1ccc(N(CCCl)CCCl)cc1 [Chlorambucil],cell viability,HCC-1143,99
same,cell viability,HCC-1187,105
same,cell viability,MDA-468,115
same,cell viability,SUM-149,102
CCCN1CC(CSC)CC2c3cccc4[nH]cc(c34)CC21.CS(=O)(=O)O (stereo not drawn) [Pergolide mesylate],cell viability,HCC-1143,96
same,cell viability,HCC-1187,116
same,cell viability,MDA-468,65.9
same,cell viability,SUM-149,111
CC(NC(C)(C)C)C(=O)c1cccc(Cl)c1.Cl (stereo not drawn) [Bupropion hydrochloride],cell viability,HCC-1143,69.5
same,cell viability,HCC-1187,90.9
same,cell viability,MDA-468,114
same,cell viability,SUM-149,95.2
